Test results: the supplement of paper PMC2702839
Counter-ions that a name gives are not always drawn. Some of the results follow.

These compounds were tested on Schistosoma mansoni schistosomula (assay: phenotypic hit in primary schistosomula screen (any phenotype vs DMSO control) (binary (1 = hit, 0 = no phenotype)); higher = active (phenotype induced)). Details: 1 µM; time (d): 7.

Compound	phenotypic hit
CC(=O)O[C@H]1CC[C@]2(C)C3=CC(=O)[C@@]4(C)C(C[C@@H]5OC6(OCC(C)CC6Br)[C@@H](C)[C@@H]54)C3CC[C@H]2C1 (stereo partly drawn) [3beta-acetoxy-23-bromo-isoallospirost-9 (11)-ene-12-one]	inactive: 0
CC(=O)Oc1cccc(O)c1 [resorcinol monoacetate]	inactive: 0
CCN1CCN(C(=O)N[C@@H](C(=O)N[C@@H]2C(=O)N3[C@@H]2SC(C)(C)[C@@H]3C(=O)O)c2ccccc2)C(=O)C1=O [piperacillin sodium]	inactive: 0
C/C1=C\CCC(=O)C2CC(C)(C)C2CC1 (centres undefined) [15-norcaryophyllen-3-one]	inactive: 0
CO[C@@H]1[C@@H](OC(N)=O)[C@@H](O)[C@H](Oc2ccc3c(O)c(NC(=O)c4ccc(O)c(CC=C(C)C)c4)c(=O)oc3c2C)OC1(C)C [novobiocin sodium]	inactive: 0
O=C(NCO)c1cccnc1 [n-hydroxymethylnicotinamide]	inactive: 0
CC(C)CCC[C@@H](C)[C@H]1CC[C@H]2[C@@H]3CC=C4CC(=O)CC[C@]4(C)[C@H]3CC[C@]12C [cholest-5-en-3-one]	inactive: 0
CCN(Cc1ccncc1)C(=O)C(CO)c1ccccc1 (centres undefined) [Tropicamide]	inactive: 0
Cc1ncc([N+](=O)[O-])n1CCO [metronidazole]	inactive: 0
COC(=O)C[C@H]1C(C)(C)C(OC(C)=O)[C@]2(O)C=C3C4CC(=O)O[C@@H](c5ccoc5)[C@]4(C)CCC3[C@@]1(C)C2=O (some centres undefined) [humilin a]	inactive: 0
CC(=O)OC1CCC23CC1(C)CCC2C(C)(C)CC3OC(C)=O (centres undefined) [clovanediol diacetate]	inactive: 0
COc1ccc2[nH]cc(CCNC(C)=O)c2c1 [Melatonin]	inactive: 0
C=C(C)C1Cc2c(ccc(C(=O)O)c2O)O1 (centres undefined) [tubaic acid]	inactive: 0
O=C([O-])c1ccccc1O.[Na+] [sodium salicylate]	inactive: 0
NC[C@H]1O[C@H](O[C@H]2[C@H](O[C@@H]3O[C@H](CO)[C@@H](O)[C@H]3O)[C@@H](O)[C@H](N)C[C@@H]2N)[C@H](N)[C@@H](O)[C@@H]1O [ribostamycin sulfate]	active: 1
COc1cc2nc(N3CCN(C(=O)c4ccco4)CC3)nc(N)c2cc1OC [prazosin hydrochloride]	active: 1
CCn1cc(C(=O)O)c(=O)c2cnc(N3CCNCC3)nc21 [pipemidic acid]	inactive: 0
CC(=O)Oc1ccc2c(c1C(C)C)CCC1C(C)(C)CCC[C@]21C (some centres undefined) [totarol acetate]	inactive: 0
CC(=O)N[C@@H](CC(=O)N[C@@H](CCC(=O)O)C(=O)O)C(=O)O [spaglumic acid]	inactive: 0
COc1ccc(-c2cc(=O)c3c(O)cc(O)cc3o2)cc1 [acacetin]	inactive: 0
Cc1ccc(S(=O)(=O)NC(=O)NN2CC3CCCC3C2)cc1 (centres undefined) [gliclazide]	inactive: 0
O=c1c(O)cccc2cc(O)c(O)c(O)c12 [purpurogallin]	inactive: 0

Compound	phenotypic hit
O=C(O)c1cc2ccccc2[nH]1 [indole-2-carboxylic acid]	inactive: 0
O=c1c(O)c(-c2cc(O)c(O)c(O)c2)oc2cc(O)cc(O)c12 [myricetin]	inactive: 0
Nc1nc(=O)c2[nH]c(=O)cnc2[nH]1 [xanthopterin]	inactive: 0
CC(=O)O[C@H]1CC[C@@]2(C)[C@H](CC[C@@H]3[C@@H]2CC[C@]2(C)[C@@H]4[C@H](C[C@@H]32)O[C@]2(CC[C@@H](C)CO2)[C@H]4C)C1 [smilagenin acetate]	inactive: 0
C#CCN(C)Cc1ccccc1 [Pargyline hydrochloride]	active: 1
COC(=O)[C@]1(C)CCC[C@]2(C)c3ccc(C(C)C)cc3C(=O)CC12 (some centres undefined) [7-oxocallitrisic acid, methyl ester]	inactive: 0
C[C@H]1[C@@H](O)O[C@@H]2O[C@@]3(C)CC[C@H]4[C@H](C)CC[C@@H]1[C@@]24OO3 [dihydroartemisinin]	inactive: 0
CCn1cc(C(=O)O)c(=O)c2ccc(C)nc21 [nalidixic acid]	inactive: 0
CCOc1ccc(C(=O)c2cc(O)c(OC)c(OC)c2O)cc1 [2,4-dihydroxy-3,4-dimethoxy-4'-ethoxybenzophenone]	inactive: 0
O=C(O)CCC(=O)OC[C@@H](NC(=O)C(Cl)Cl)[C@H](O)c1ccc([N+](=O)[O-])cc1 [chloramphenicol hemisuccinate]	inactive: 0
COc1ccc2cc(CCC(C)=O)ccc2c1 [nabumetone]	inactive: 0
COc1cc2c(cc1OC)C1C(=O)c3c(OC)cc4c(c3OC1CO2)CCC(C)(C)O4 (stereo not drawn) [dihydro-alpha-toxicarol methyl ether]	inactive: 0
CCCCCC(C)N (centres undefined) [tuaminoheptane sulfate]	inactive: 0
O=C(CCCN1CC=C(n2c(=O)[nH]c3ccccc32)CC1)c1ccc(F)cc1 [droperidol]	inactive: 0
CCN(CC)CCNC(=O)c1cc(S(C)(=O)=O)ccc1OC [tiapride hydrochloride]	inactive: 0
CC1(C)C(=O)CC[C@@]2(C)C1C[C@@H](O)[C@@]1(C)C3=CC(=O)O[C@@H](c4ccoc4)[C@]3(C)CCC21 (some centres undefined) [dihydro-7-desacetyldeoxygedunin]	inactive: 0
Oc1c(I)cc(I)c2cccnc12 [iodoquinol]	inactive: 0
CCOc1cccc(C(=O)c2ccc(O)c(O)c2O)c1 [3,4-didesmethyl-5-deshydroxy-3'-ethoxyscleroin]	inactive: 0
O=C(Cn1ccnc1[N+](=O)[O-])NCCO [etanidazole]	inactive: 0
CC(=O)OCC(COC(C)=O)OC(C)=O [triacetin]	inactive: 0
CN(C)CCN(Cc1cccs1)c1ccccn1 [methapyrilene hydrochloride]	inactive: 0
COc1ccc([C@H]2COc3c(ccc(O)c3OC)C2)c(OC)c1O [duartin (-)]	inactive: 0
